Hit rate of the full screen: of about 360,000 compounds, about 520 (0.14%) were called active. The inconclusive results got no clear call from the source; some entries with a clear call stand among them for comparison. Calls come from the whole dose curve; as a rule, active = well fitted inhibition curve with a large enough effect; inconclusive = small, poorly fitted or top-dose-only effect; inactive = no such curve, though single readings can be large or run the other way. No potency is given beside an inconclusive call; the fits are too rough.
molecular target: Rap guanine nucleotide exchange factor 3 (Homo sapiens) (UniProt O95398); experiment: qHTS for Antagonist of cAMP-regulated guanine nucleotide exchange factor 3 (EPAC1): primary screen; conditions: EPAC1 GEF assay, Rap1b-BODIPY-GDP exchange fluorescence; activity change, negative = inhibition: at 115 µM (top of the series); note: nearly all actives have a fitted effect of over 50% in size;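 for activity change, negative = inhibition: plate controls were vehicle for no effect and positive control for full effect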
Potency is the fitted concentration of half-maximal effect; tags give direction and shape of the fitted curve.

UniProt O95398, sequence (O95398 whole entry, looked up): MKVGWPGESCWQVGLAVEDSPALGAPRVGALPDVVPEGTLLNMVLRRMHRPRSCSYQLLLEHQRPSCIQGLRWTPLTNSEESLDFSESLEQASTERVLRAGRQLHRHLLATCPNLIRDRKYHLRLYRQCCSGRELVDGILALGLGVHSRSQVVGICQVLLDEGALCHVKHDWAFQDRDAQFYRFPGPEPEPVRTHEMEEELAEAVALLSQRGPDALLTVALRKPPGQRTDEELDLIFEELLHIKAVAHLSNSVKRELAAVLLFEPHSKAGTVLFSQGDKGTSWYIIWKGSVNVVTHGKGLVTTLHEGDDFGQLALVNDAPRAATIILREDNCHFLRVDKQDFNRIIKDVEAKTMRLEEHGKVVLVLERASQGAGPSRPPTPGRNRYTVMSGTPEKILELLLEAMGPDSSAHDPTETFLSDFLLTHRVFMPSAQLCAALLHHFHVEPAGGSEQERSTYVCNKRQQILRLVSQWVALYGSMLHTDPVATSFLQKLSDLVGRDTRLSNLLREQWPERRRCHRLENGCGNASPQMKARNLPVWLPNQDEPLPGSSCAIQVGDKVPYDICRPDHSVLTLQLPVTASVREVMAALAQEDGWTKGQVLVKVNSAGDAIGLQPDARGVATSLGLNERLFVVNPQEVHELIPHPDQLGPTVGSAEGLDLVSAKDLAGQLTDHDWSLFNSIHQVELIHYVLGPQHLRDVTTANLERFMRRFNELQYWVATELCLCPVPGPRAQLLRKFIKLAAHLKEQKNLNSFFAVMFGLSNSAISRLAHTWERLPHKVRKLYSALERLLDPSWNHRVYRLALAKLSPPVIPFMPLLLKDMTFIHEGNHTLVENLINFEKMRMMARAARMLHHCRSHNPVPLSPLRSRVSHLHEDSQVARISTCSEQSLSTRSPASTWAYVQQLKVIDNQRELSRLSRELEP

Row | Compound | Potency | activity change, negative = inhibition
1 | O=C(COc1ccc(Cl)cc1)Nc1ccc(Cc2ccncc2)cc1 | inconclusive [inhibitor, partial curve] | –
2 | CN(C)C(=O)Cn1cc(S(=O)(=O)Cc2ccccc2)c2ccccc21 | inconclusive [inhibitor, partial curve] | –
3 | O=C1N=c2ccccc2=C1c1sc(NS(=O)(=O)Cc2ccccc2)nc1O | inconclusive [inhibitor, single point] | –
4 | Cc1oc2c(cc(NS(=O)(=O)c3ccc(C(C)C)cc3)c3ccccc32)c1C(=O)O | – | inactive: -25.3%
5 | COc1cccc(NC(=O)C(Sc2nnc(Nc3ccccc3C)s2)c2ccccc2)c1 (stereo not given) | inconclusive [inhibitor, full curve, poor fit] | –
6 | CCOC(=O)c1[nH]cnc1C(=O)NCc1ccccc1 | inconclusive [inhibitor, single point] | –
7 | Cc1ccc(C(=O)N2CCN(C)CC2)cc1S(=O)(=O)N1CCCCC1 | inconclusive [inhibitor, partial curve] | –
8 | Cc1ccc2nc(Br)c3c(c2c1)OC(CBr)C3 (stereo not given) | inconclusive [inhibitor, full curve] | –
9 | Cc1oc(-c2ccccc2Cl)nc1CS(=O)CC(=O)NCc1ccc(Cl)cc1 (stereo not given) | inconclusive [inhibitor, partial curve] | –
10 | O=C(c1cc(-c2cccc(Cl)c2)on1)N1CCN(c2ccccc2)CC1 | inconclusive [inhibitor, single point] | –
11 | Cc1cc(=O)n2[nH]c(-c3ccsc3-n3c(C)ccc3C)cc2n1 | inconclusive [inhibitor, single point] | –
12 | Cc1ccc(S(=O)(=O)c2nc(Nc3ccccc3)sc2Cl)cc1 | – | inactive: -6.04%
13 | COc1ccccc1C(OC(=O)c1ccco1)C(=O)NCc1ccc(F)cc1 (stereo not given) | inconclusive [inhibitor, single point] | –
14 | COc1ccc(S(=O)(=O)N2CCC(n3cnc4ccccc43)CC2)cc1 | – | inactive: -1.96%
15 | COC(=O)[C@@H]1C[C@H]2CC[C@H](O)C[C@H]2N1Cc1ccc(C(C)(C)C)cc1 | inconclusive [inhibitor, full curve, poor fit] | –
16 | O=C(CSc1nc2ccsc2c(=O)n1CC1CCC(C(=O)O)CC1)c1ccc(Cl)cc1 (stereo not given) | active: 56.2 µM | –
17 | S=C(NCCN1CCOCC1)NC1CCCC1 | inconclusive [inhibitor, partial curve, poor fit] | –
18 | Cc1cccc(CN2CCC(Oc3ccc(C(=O)N4CCCCC4)cc3)CC2)c1 | – | inactive: 4.42%
19 | O=C(CSc1nnc(-c2ccccn2)n1Cc1ccco1)c1ccc(Cl)cc1 | inconclusive [inhibitor, single point] | –
20 | CCOc1ccc2nc(NC(=O)CSc3nc(-c4ccccc4)c(C#N)c(=O)[nH]3)sc2c1 | inconclusive [inhibitor, full curve] | –
21 | CCC(C)[C@H](N)c1cn([C@@H](Cc2cc3ccccc3[nH]2)C(=O)N2CCNCC2)nn1 (stereo not given in full) | – | inactive: 12%
22 | CCSc1nnc(NC(=O)CSc2nnc(-c3c[nH]c4ccccc34)n2CC)s1 | inconclusive [inhibitor, single point] | –

Row | Compound | Potency | activity change, negative = inhibition
23 | O=S1(=O)N=C(N/N=C/c2ccccn2)c2ccccc21 | – | inactive: -11.7%
24 | O=[N+]([O-])c1ccc(O)c(C2CCCCC2)c1 | inconclusive [inhibitor, partial curve, poor fit] | –
25 | CCOc1ccccc1NC(=O)CCN(c1ccc(C)cc1)S(=O)(=O)c1ccccc1 | inconclusive [inhibitor, partial curve] | –
26 | COCCNc1oc(-c2ccc(F)cc2)nc1C#N | inconclusive [inhibitor, single point] | –
27 | CC(C)=CCc1c2c(c3occ(-c4ccc(O)cc4)c(=O)c3c1O)C=CC(C)(C)O2 | inconclusive [inhibitor, full curve] | –
28 | Nc1nn(S(=O)(=O)c2ccccc2)cc1-c1cccc([N+](=O)[O-])c1 | inconclusive [inhibitor, single point] | –
29 | CCOc1ccc(Cc2nc(-c3nonc3N)no2)cc1OCC | inconclusive [inhibitor, full curve, poor fit] | –
30 | COc1cc(N=Nc2ccc(C(=O)N(C)C)cc2)c(C)cc1N | – | inconclusive: -11.7% [inhibitor]
31 | COc1ccc(C2CC(c3ccccc3)=NN2c2ccc(S(N)(=O)=O)cc2)cc1 (stereo not given) | inconclusive [inhibitor, full curve, poor fit] | –
32 | Cn1c(CCNC(=O)c2ccco2)nc2cc(NS(=O)(=O)c3ccc(Cl)cc3)ccc21 | – | inactive: 3.61%
33 | CC(C)(C)c1ccc(C(=O)N/C(=C\c2cccc([N+](=O)[O-])c2)C(=O)Nc2cccc(C(=O)O)c2)cc1 | inconclusive [inhibitor, partial curve] | –
34 | CC(=O)N(C)c1ccc(NC(=S)Nc2ccc(C(C)C)cc2)cc1 | inconclusive [inhibitor, full curve, poor fit] | –
35 | O=C(CN1C(=O)C2C3c4ccccc4C(c4ccccc43)C2C1=O)Nc1cccc(C(=O)O)c1 (stereo not given) | – | inconclusive: -14% [inhibitor]
36 | Nc1ncnc2oc(-c3ccco3)c(-c3ccco3)c12 | inconclusive [inhibitor, single point] | –
37 | C=CCOC(=O)C1=C(C)NC(SCC(=O)N(CC)CC)=C(C#N)C1c1ccco1 (stereo not given) | inconclusive [inhibitor, single point] | –
38 | CCC(C(=O)NCCc1ccc(OC)cc1OC)n1nc(C)n2c(cc3occc32)c1=O (stereo not given) | – | inactive: -15.5%
39 | COc1ccc(C(=O)COC(=O)CNC(=O)c2ccc(Cl)cc2Cl)c(OC)c1 | inconclusive [inhibitor, single point] | –
40 | COCOCCn1cc(CN2CCS(=O)(=O)N(Cc3ccc(-c4ccc(Cl)nc4)cc3)C(CC(C)C)C2=O)nn1 (stereo not given) | inconclusive [inhibitor, partial curve] | –
41 | O=C(c1cccnc1)N1CCN(S(=O)(=O)c2ccc(F)cc2)CC1 | inconclusive [inhibitor, single point] | –
42 | Cc1ccc(-c2csc(=S)n2CC(=O)OCC(=O)NCc2ccco2)cc1 | inconclusive [inhibitor, single point] | –
43 | Cc1ccsc1/C=N/NS(=O)(=O)c1ccc([N+](=O)[O-])cc1 | – | inactive: 2.76%
44 | CCOC(=O)c1sc2nc3c(SCCC(=O)O)cc(C(=O)c4cc(OC)ccc4O)cn3c(=O)c2c1C | inconclusive [inhibitor, full curve, poor fit] | –

Row | Compound | Potency | activity change, negative = inhibition
45 | Cc1cc(C)cc(NC(=O)CN(c2ccc(F)cc2)S(C)(=O)=O)c1 | inconclusive [inhibitor, single point] | –
46 | COc1cccc(/C=N/NC(=O)c2nnn(-c3nonc3N)c2CN(C)C2CCCCC2)c1 | – | inactive: -1.92%
47 | O=C(CSc1ccc(Cl)cc1)N1CCN(c2ccc([N+](=O)[O-])cc2Cl)CC1 | – | inactive: -19.5%
48 | O=C(Nc1ccccn1)c1cc(-c2cccc(Cl)c2)nc2ccccc12 | inconclusive [inhibitor, full curve, poor fit] | –
49 | Cc1ccc(NC(=O)Cn2nnc3ccccc32)c(C)c1 | inconclusive [inhibitor, partial curve, poor fit] | –
50 | CCN(CC(=O)Nc1ccc(NC(C)=O)cc1)CC(=O)Nc1ccc(F)c(Cl)c1 | inconclusive [inhibitor, partial curve] | –
51 | Cc1cc(NC(=O)COc2ccccc2)ccc1Cl | inconclusive [inhibitor, full curve, poor fit] | –
52 | CC(C)(C)C1=CC(O)(c2ccccc2)C=C(C(C)(C)C)C1=O | – | inactive: -22.8%
53 | C=CCNC(=S)Nc1cccc2ccccc12 | – | inactive: 2.16%
54 | COc1ccc(C(C(=O)NC2CCCCC2)N(C(=O)CCl)c2ccccc2Cl)cc1 (stereo not given) | inconclusive [inhibitor, single point] | –
55 | CC(C)(C)NC(=O)CSCc1c(Cl)cccc1Cl | inconclusive [inhibitor, single point] | –
56 | CC(=O)c1ccccc1NC(=O)COC(=O)/C=C/c1cccs1 | inconclusive [inhibitor, single point] | –
57 | CCN(CC)c1ccc(/C=N/OC(C)C(=O)Nc2ccc(C)cc2)cc1 (stereo not given) | inconclusive [inhibitor, single point] | –
58 | O=c1oc2c(-c3ccc([N+](=O)[O-])cc3)cc(O)cc2s1 | inconclusive [inhibitor, partial curve] | –
59 | COC/C=C/C1=CC2=CC(=O)C(C)(OC(=O)c3cnc4ccccc4n3)C(=O)C2=CN1Cc1ccc(OC)cc1 (stereo not given) | inconclusive [inhibitor, partial curve, poor fit] | –
60 | CCCC(=O)Nc1ccc2c(c1)c1ccccc1n2CC | – | inactive: -22.3%
61 | COCOCCn1cc(CN2CCS(=O)(=O)N(Cc3ccc(-c4ccc(C)cc4)cc3)C(CC(C)C)C2=O)nn1 (stereo not given) | – | inactive: -9.33%
62 | CCc1sc(C(=O)Nc2cccc(C(C)=O)c2)cc1C | inconclusive [inhibitor, single point] | –
63 | Cc1nn(CC(=O)Nc2ccc(Cl)cc2)c(=O)c2cc(-c3ccccc3)nn12 | inconclusive [inhibitor, full curve, poor fit] | –
64 | CCOC(=O)[C@]12CCC=C1N(Cc1ccco1)C(=O)[C@H](CC(=O)N1CCSCC1)C2 | – | inactive: -20.2%
65 | CC1=NN(C(N)=S)C(=O)C1N=Nc1ccc(O)cc1 (stereo not given) | inconclusive [inhibitor, partial curve] | –

Source: PubChem BioAssay AID720709 (National Center for Advancing Translational Sciences (NCATS), 2013)
